{
  "source": "PubChem BioAssay (Tox21)",
  "key": {"[1]": {"test": "qHTS assay to identify small molecule agonists of the androgen receptor (AR) signaling pathway in the presence of an antagonist - cell viability counter screen (AID 1259379); further: nearly all actives have a fitted effect of over 25% in size;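 on activity change, negative = cytotoxicity: MDA-kb2 human breast cancer cells carrying an MMTV luciferase reporter; on the % scale 0 is the no-effect control and ±100 the full control effect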", "procedure,_shortened": "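Seed MDA-kb2 at 3,000 cells/well; incubate 5 hr, 37C, 0% CO2. Add nilutamide to 3.0uM final, then pin compounds at 15 concentrations. Incubate 16 hr. Add CellTiter-Fluor at 15 hr, read fluorescence after 1 hr.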"}, "[2]": {"test": "qHTS assay to identify small molecule antagonists of the estrogen receptor beta (ER-beta) signaling pathway - cell viability counter screen (AID 1259382); further: nearly all actives have a fitted effect of over 55% in size", "procedure,_shortened": "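In this multiplexed counter screen, cells were seeded at 2,000 per well in medium with 2% charcoal-stripped FBS and incubated 6 hr before compound and 1nM final E2 were added. Sixteen hours later, ATP-based luminescence reported viability.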"}, "[3]": {"target": "Thyrotropin receptor (Homo sapiens) (UniProt P16473)", "sequence (P16473 whole entry, looked up)": "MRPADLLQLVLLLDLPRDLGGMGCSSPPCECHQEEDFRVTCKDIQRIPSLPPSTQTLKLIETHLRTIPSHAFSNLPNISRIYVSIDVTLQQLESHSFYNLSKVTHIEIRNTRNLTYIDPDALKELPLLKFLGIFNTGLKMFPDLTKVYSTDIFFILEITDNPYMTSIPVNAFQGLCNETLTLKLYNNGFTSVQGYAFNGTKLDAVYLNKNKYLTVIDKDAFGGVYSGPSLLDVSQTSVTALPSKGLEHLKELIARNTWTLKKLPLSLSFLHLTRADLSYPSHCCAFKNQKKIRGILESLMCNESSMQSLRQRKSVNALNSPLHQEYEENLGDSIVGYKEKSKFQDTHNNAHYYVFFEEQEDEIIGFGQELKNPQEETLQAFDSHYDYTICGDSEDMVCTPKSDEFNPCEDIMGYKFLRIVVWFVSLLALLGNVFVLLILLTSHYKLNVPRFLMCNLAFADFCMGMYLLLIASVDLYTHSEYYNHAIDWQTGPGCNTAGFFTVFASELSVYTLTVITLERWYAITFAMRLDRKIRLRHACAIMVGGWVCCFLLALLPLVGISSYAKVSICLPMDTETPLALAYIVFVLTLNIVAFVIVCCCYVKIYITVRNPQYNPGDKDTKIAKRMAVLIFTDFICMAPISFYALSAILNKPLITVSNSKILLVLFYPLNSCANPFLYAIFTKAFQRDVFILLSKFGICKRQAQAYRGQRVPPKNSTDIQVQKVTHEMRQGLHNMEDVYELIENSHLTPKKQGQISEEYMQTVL", "test": "qHTS assay to identify small molecule antagonists of the thyroid stimulating hormone receptor (TSHR) signaling pathway (AID 1259385; calls by dose curve; further: nearly all actives have a fitted effect of over 20% in size)", "details": "TSHR-HEK293 cAMP HTRF, TSH-stimulated antagonist mode; activity change, negative = inhibition: at 92.4 µM (top of the series) unless noted", "procedure,_shortened": "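TSHR-HEK293 cells (800/well) plated 18 h, then compounds with Ro20-1724 and TSH at 1.5 ng/mL final, 30 min at room temperature. cAMP quantified by HTRF (cAMP-d2/anti-cAMP-cryptate, 1 h); 15 concentrations in triplicate.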"}, "[4]": {"target": "Progesterone receptor (Homo sapiens) (UniProt P06401)", "sequence (P06401 whole entry, looked up)": "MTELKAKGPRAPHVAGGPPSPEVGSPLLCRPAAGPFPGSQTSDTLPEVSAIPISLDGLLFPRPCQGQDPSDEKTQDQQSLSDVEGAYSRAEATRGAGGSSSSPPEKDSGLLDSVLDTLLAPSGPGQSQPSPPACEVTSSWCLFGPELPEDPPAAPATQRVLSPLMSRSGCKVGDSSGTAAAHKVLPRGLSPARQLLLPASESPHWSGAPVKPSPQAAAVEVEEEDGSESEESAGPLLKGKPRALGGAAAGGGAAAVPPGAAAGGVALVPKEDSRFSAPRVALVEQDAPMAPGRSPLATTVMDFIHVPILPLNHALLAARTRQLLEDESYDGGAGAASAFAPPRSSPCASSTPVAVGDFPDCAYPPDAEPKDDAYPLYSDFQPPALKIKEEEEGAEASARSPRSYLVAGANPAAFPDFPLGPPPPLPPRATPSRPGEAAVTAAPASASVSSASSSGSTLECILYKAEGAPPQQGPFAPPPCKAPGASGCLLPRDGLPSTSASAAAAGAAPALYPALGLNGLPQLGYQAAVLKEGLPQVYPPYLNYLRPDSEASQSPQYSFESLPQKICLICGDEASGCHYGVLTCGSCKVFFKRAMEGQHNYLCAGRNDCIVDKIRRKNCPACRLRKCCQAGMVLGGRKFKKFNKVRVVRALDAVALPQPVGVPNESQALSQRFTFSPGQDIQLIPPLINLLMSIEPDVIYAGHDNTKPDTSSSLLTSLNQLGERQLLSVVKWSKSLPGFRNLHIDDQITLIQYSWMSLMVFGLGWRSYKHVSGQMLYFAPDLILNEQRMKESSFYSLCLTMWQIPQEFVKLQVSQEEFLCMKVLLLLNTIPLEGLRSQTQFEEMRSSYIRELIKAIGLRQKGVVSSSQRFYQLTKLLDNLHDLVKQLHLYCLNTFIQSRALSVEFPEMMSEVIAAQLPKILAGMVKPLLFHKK", "test": "qHTS assay to identify small molecule agonists of the progesterone receptor (PR) signaling pathway (AID 1346784; calls by dose curve; further: nearly all actives have a fitted effect of over 30% in size; on activation: on the % scale 0 is the no-effect control and ±100 the full control effect)", "details": "PR-UAS-bla HEK293T, beta-lactamase FRET ratio, 16 h; activation: at 92.4 µM (top of the series) unless noted", "procedure,_shortened": "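Beta-lactamase reporter read-out: after 16 hr compound treatment at 37C and a further 2 hr at room temperature with LiveBLAzer B/G FRET substrate, fluorescence was measured in PR-UAS-bla HEK 293T cells grown in 2% charcoal-stripped serum.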"}, "[5]": {"test": "qHTS assay to identify small molecule agonists of the estrogen receptor beta (ER-beta) signaling pathway - cell viability counter screen (AID 1259380); further: nearly all actives have a fitted effect of over 30% in size; on activity change, negative = cytotoxicity: on the % scale 0 is the no-effect control and ±100 the full control effect", "procedure,_shortened": "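CellTiter-Glo read, 30 min RT, same wells as bla assay; cells ER-beta-UAS-bla HEK293T; 16 hr compound, 37C; medium 2% charcoal-stripped FBS.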"}, "[6]": {"test": "qHTS assay to identify small molecule agonists of the estrogen receptor alpha (ER-alpha) signaling pathway in the presence of an antagonist - cell viability counter screen (AID 1259386); further: nearly all actives have a fitted effect of over 30% in size", "procedure,_shortened": "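Viability counter screen using VM7Luc4E2 (full-length ER-alpha, four ERE-luciferase). The cells were treated with compounds alongside ICI-182,780 10.0nM for 22hr, and live-cell protease fluorescence was quantified with CellTiter-Fluor.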"}},
  "note": "Several values for one entry are separate records, joined by “and”; a condition that tells them apart may be missing. Equal entries are not always repeated. The shares of active, inactive and inconclusive entries below differ from those in the screen. Potencies beside an inconclusive call are fits to weak or partial responses and may not hold up. Some compounds were tested as several samples or in several runs, with calls that do not always agree. Activity calls are given as the source filed them. Unless noted, the call rests on the fitted dose curve; in most records, active means well fitted curve in the direction sought with a large enough effect in the repeat runs; inconclusive means weak or mixed curves; inactive means no such curve, though single readings can be large; an effect the other way counts as inactive or inconclusive. Potency means the concentration at half of the fitted maximal effect; tags describe the fitted curve by direction and shape or compound fluorescence and quenching.",
  "data": [
    {"molecule": "CC(C)NC[C@@H](O)COc1ccc(CC(N)=O)cc1", "values": [
      {"measurement": "Potency", "setting": "[1]", "result": "inactive"}
    ]},
    {"molecule": "COC(=O)Nc1nc2ccc(C(=O)C3CC3)cc2[nH]1", "values": [
      {"measurement": "Potency", "setting": "[1]", "result": "inconclusive: 9.44 µM [cytotoxic, full curve, poor fit]"}
    ]},
    {"molecule": "CCCCCCCCCCCC(=O)[O][Sn]([CH2]CCC)([CH2]CCC)[O]C(=O)CCCCCCCCCCC", "values": [
      {"measurement": "Potency", "setting": "[1]", "result": "inconclusive: 18.8 µM [cytotoxic, partial curve]"}
    ]},
    {"molecule": "CCCCC(=O)O[C@]1(C(=O)CO)[C@@H](C)C[C@H]2[C@@H]3CCC4=CC(=O)C=C[C@]4(C)[C@@]3(F)[C@@H](O)C[C@@]21C", "values": [
      {"measurement": "Potency", "setting": "[1]", "result": "inactive"},
      {"measurement": "Potency", "setting": "[2]", "result": "inconclusive: 34.4 µM [cytotoxic, partial curve]"},
      {"measurement": "Potency", "setting": "[3]", "result": "inconclusive: 54.5 µM [falling, partial curve]"},
      {"measurement": "Potency", "setting": "[4]", "result": "active: 0.0019 µM"}
    ]},
    {"molecule": "CS(=O)(=O)Nc1ccc([N+](=O)[O-])cc1Oc1ccccc1", "values": [
      {"measurement": "Potency", "setting": "[1]", "result": "inconclusive: 54.5 µM [cytotoxic, partial curve] and active: 26.6 µM"},
      {"measurement": "Potency", "setting": "[5]", "result": "inconclusive: 27.3 µM [cytotoxic, partial curve]"},
      {"measurement": "Potency", "setting": "[6]", "result": "active: 48.6 µM and active: 26.6 µM"}
    ]},
    {"molecule": "Fc1ccc([C@@H]2CCNC[C@H]2COc2ccc3c(c2)OCO3)cc1", "values": [
      {"measurement": "Potency", "setting": "[1]", "result": "inconclusive: 33.5 µM [cytotoxic, single point]"},
      {"measurement": "Potency", "setting": "[5]", "result": "active: 33.5 µM"},
      {"measurement": "Potency", "setting": "[2]", "result": "active: 26.6 µM"}
    ]},
    {"molecule": "C[C@@H]1CN(c2c(F)c(N)c3c(=O)c(C(=O)O)cn(C4CC4)c3c2F)C[C@H](C)N1", "values": [
      {"measurement": "activity change, negative = cytotoxicity", "setting": "[1]", "result": "inactive: 2.69% [at 19 µM]"}
    ]},
    {"molecule": "CC1=C(/C=C/C(C)=C\\C=C\\C(C)=C\\C(=O)O)C(C)(C)CCC1", "values": [
      {"measurement": "Potency", "setting": "[1]", "result": "inconclusive: 61.1 µM [cytotoxic, single point]"},
      {"measurement": "Potency", "setting": "[5]", "result": "inconclusive: 21.7 µM [cytotoxic, full curve]"},
      {"measurement": "Potency", "setting": "[2]", "result": "inconclusive: 34.4 µM [cytotoxic, partial curve]"},
      {"measurement": "Potency", "setting": "[6]", "result": "inconclusive: 54.5 µM [cytotoxic, partial curve]"}
    ]},
    {"molecule": "Nc1nc(F)nc2c1ncn2[C@@H]1O[C@H](CO)[C@@H](O)[C@@H]1O", "values": [
      {"measurement": "Potency", "setting": "[1]", "result": "inactive"}
    ]},
    {"molecule": "O=S(=O)(O)c1ccccc1O", "values": [
      {"measurement": "Potency", "setting": "[1]", "result": "inactive"},
      {"measurement": "Potency", "setting": "[5]", "result": "inactive"}
    ]},
    {"molecule": "O=C(O)c1ccccc1", "values": [
      {"measurement": "Potency", "setting": "[1]", "result": "inactive"},
      {"measurement": "Potency", "setting": "[5]", "result": "inconclusive: 45.4 µM [cytotoxic, partial curve] and inactive"},
      {"measurement": "Potency", "setting": "[4]", "result": "active: 0.596 µM"}
    ]},
    {"molecule": "CC12CCC(CC1)C(C)(C)O2", "values": [
      {"measurement": "Potency", "setting": "[1]", "result": "inactive"},
      {"measurement": "Potency", "setting": "[5]", "result": "inconclusive: 67.7 µM [rising, partial curve, poor fit]"}
    ]},
    {"molecule": "CC(C)NCC(O)COc1cccc2ccccc12", "note": "(stereo unspecified)", "values": [
      {"measurement": "Potency", "setting": "[1]", "result": "inconclusive: 69.3 µM [cytotoxic, single point]"},
      {"measurement": "Potency", "setting": "[5]", "result": "active: 55 µM and active: 54.5 µM"},
      {"measurement": "Potency", "setting": "[2]", "result": "inconclusive: 30.6 µM [cytotoxic, partial curve]"},
      {"measurement": "Potency", "setting": "[4]", "result": "inactive"}
    ]},
    {"molecule": "Cc1cc(C)c(S(=O)(=O)O)cc1N=Nc1cc(S(=O)(=O)O)c2ccccc2c1O", "values": [
      {"measurement": "Potency", "setting": "[1]", "result": "active: 27.3 µM"}
    ]},
    {"molecule": "Cc1ccc(OC(=O)CC(C)C)cc1", "values": [
      {"measurement": "Potency", "setting": "[1]", "result": "inactive"}
    ]},
    {"molecule": "c1ccc(C[P+](c2ccccc2)(c2ccccc2)c2ccccc2)cc1", "values": [
      {"measurement": "Potency", "setting": "[1]", "result": "active: 2.73 µM"},
      {"measurement": "Potency", "setting": "[5]", "result": "inconclusive: 4.86 µM [cytotoxic, full curve]"},
      {"measurement": "Potency", "setting": "[3]", "result": "inconclusive: 43.3 µM [falling, partial curve]"}
    ]},
    {"molecule": "Cc1c(N)c(=O)n(-c2ccccc2)n1C", "values": [
      {"measurement": "Potency", "setting": "[1]", "result": "inactive"},
      {"measurement": "Potency", "setting": "[5]", "result": "inactive"}
    ]},
    {"molecule": "CC(COc1ccc(C(C)(C)C)cc1)OS(=O)OCCCl", "note": "(stereo unspecified)", "values": [
      {"measurement": "Potency", "setting": "[1]", "result": "inconclusive: 1.54 µM [cytotoxic, full curve]"},
      {"measurement": "Potency", "setting": "[5]", "result": "inconclusive: 0.974 µM [cytotoxic, full curve, poor fit]"},
      {"measurement": "Potency", "setting": "[4]", "result": "inconclusive: 1.73 µM [activator, partial curve]"}
    ]},
    {"molecule": "Nc1ccc2cc(S(=O)(=O)O)cc(O)c2c1N=Nc1ccccc1C(F)(F)F", "values": [
      {"measurement": "Potency", "setting": "[1]", "result": "active: 30.6 µM"}
    ]}
  ]
}
